± gives the standard deviation of the averaged measurements. Laboratory Escherichia coli strains with one amino-acid change in an essential protein, pooled on minimal glucose agar with carbenicillin or gentamicin at twice the control MIC (plus kanamycin and chloramphenicol for the plasmids), 48 h. Fold change of barcode share against drug-free plates; higher = less susceptible. Active = above 20 in both replicates (the paper's putatively resistant). '<' = one read or none on drug, '>' = one read or none on a drug-free plate. Shares are relative, so most strains fall below 1 when a few take over. Listed are strains with at least 15 reads on both drug-free plates, and hits; most hits rest on fewer reference reads. Replicate rank correlation about 0.5. Edits are read from barcodes.
B1: lolB I160A (protein)
chain: MPLPDFRLIRLLPLAALVLTACSVTTPKGPGKSPDSPQWRQHQQDVRNLNQYQTRGAFAYISDQQKVYARFFWQQTGQDRYRLLLTNPLGSTELELNAQPGNVQLVDNKGQRYTADDAEEMIGKLTGMPIPLNSLRQWILGLPGDATDYKLDDQYRLSEATYSQNGKNWKVVYGGYDTKTQPAMPANMELTDGGQRIKLKMDNWIVK
B2: lolC M63A (protein)
chain: MYQPVALFIGLRYMRGRAADRFGRFVSWLSTIGITLGVMALVTVLSVMNGFERELQNNILGLAPQAILSSEHGSLNPQQLPETAVKLDGVNRVAPITTGDVVLQSARSVAVGVMLGIDPAQKDPLTPYLVNVKQTDLEPGKYNVILGEQLASQLGVNRGDQIRVMVPSASQFTPMGRIPSQRLFNVIGTFAANSEVDGYEMLVNIEDASRLMRYPAGNITGWRLWLDEPLKVDSLSQQKLPEGSKWQDWRDRKGELFQAVRMEKNMMGLLLSLIVAVAAFNIITSLGLMVMEKQGEVAILQTQGLTPRQIMMVFMVQGASAGIIGAILGAALGALLASQLNNLMPIIGVLLDGAALPVAIEPLQVIVIALVAMAIALLSTLYPSWRAAATQPAEALRYE
B3: lolC M63W (protein)
chain: MYQPVALFIGLRYMRGRAADRFGRFVSWLSTIGITLGVMALVTVLSVMNGFERELQNNILGLWPQAILSSEHGSLNPQQLPETAVKLDGVNRVAPITTGDVVLQSARSVAVGVMLGIDPAQKDPLTPYLVNVKQTDLEPGKYNVILGEQLASQLGVNRGDQIRVMVPSASQFTPMGRIPSQRLFNVIGTFAANSEVDGYEMLVNIEDASRLMRYPAGNITGWRLWLDEPLKVDSLSQQKLPEGSKWQDWRDRKGELFQAVRMEKNMMGLLLSLIVAVAAFNIITSLGLMVMEKQGEVAILQTQGLTPRQIMMVFMVQGASAGIIGAILGAALGALLASQLNNLMPIIGVLLDGAALPVAIEPLQVIVIALVAMAIALLSTLYPSWRAAATQPAEALRYE
B4: lolC M63D (protein)
chain: MYQPVALFIGLRYMRGRAADRFGRFVSWLSTIGITLGVMALVTVLSVMNGFERELQNNILGLDPQAILSSEHGSLNPQQLPETAVKLDGVNRVAPITTGDVVLQSARSVAVGVMLGIDPAQKDPLTPYLVNVKQTDLEPGKYNVILGEQLASQLGVNRGDQIRVMVPSASQFTPMGRIPSQRLFNVIGTFAANSEVDGYEMLVNIEDASRLMRYPAGNITGWRLWLDEPLKVDSLSQQKLPEGSKWQDWRDRKGELFQAVRMEKNMMGLLLSLIVAVAAFNIITSLGLMVMEKQGEVAILQTQGLTPRQIMMVFMVQGASAGIIGAILGAALGALLASQLNNLMPIIGVLLDGAALPVAIEPLQVIVIALVAMAIALLSTLYPSWRAAATQPAEALRYE
B5: lolC M63P (protein)
chain: MYQPVALFIGLRYMRGRAADRFGRFVSWLSTIGITLGVMALVTVLSVMNGFERELQNNILGLPPQAILSSEHGSLNPQQLPETAVKLDGVNRVAPITTGDVVLQSARSVAVGVMLGIDPAQKDPLTPYLVNVKQTDLEPGKYNVILGEQLASQLGVNRGDQIRVMVPSASQFTPMGRIPSQRLFNVIGTFAANSEVDGYEMLVNIEDASRLMRYPAGNITGWRLWLDEPLKVDSLSQQKLPEGSKWQDWRDRKGELFQAVRMEKNMMGLLLSLIVAVAAFNIITSLGLMVMEKQGEVAILQTQGLTPRQIMMVFMVQGASAGIIGAILGAALGALLASQLNNLMPIIGVLLDGAALPVAIEPLQVIVIALVAMAIALLSTLYPSWRAAATQPAEALRYE
B6: lolC M165A (protein)
chain: MYQPVALFIGLRYMRGRAADRFGRFVSWLSTIGITLGVMALVTVLSVMNGFERELQNNILGLMPQAILSSEHGSLNPQQLPETAVKLDGVNRVAPITTGDVVLQSARSVAVGVMLGIDPAQKDPLTPYLVNVKQTDLEPGKYNVILGEQLASQLGVNRGDQIRVAVPSASQFTPMGRIPSQRLFNVIGTFAANSEVDGYEMLVNIEDASRLMRYPAGNITGWRLWLDEPLKVDSLSQQKLPEGSKWQDWRDRKGELFQAVRMEKNMMGLLLSLIVAVAAFNIITSLGLMVMEKQGEVAILQTQGLTPRQIMMVFMVQGASAGIIGAILGAALGALLASQLNNLMPIIGVLLDGAALPVAIEPLQVIVIALVAMAIALLSTLYPSWRAAATQPAEALRYE
B7: lolC M165W (protein)
chain: MYQPVALFIGLRYMRGRAADRFGRFVSWLSTIGITLGVMALVTVLSVMNGFERELQNNILGLMPQAILSSEHGSLNPQQLPETAVKLDGVNRVAPITTGDVVLQSARSVAVGVMLGIDPAQKDPLTPYLVNVKQTDLEPGKYNVILGEQLASQLGVNRGDQIRVWVPSASQFTPMGRIPSQRLFNVIGTFAANSEVDGYEMLVNIEDASRLMRYPAGNITGWRLWLDEPLKVDSLSQQKLPEGSKWQDWRDRKGELFQAVRMEKNMMGLLLSLIVAVAAFNIITSLGLMVMEKQGEVAILQTQGLTPRQIMMVFMVQGASAGIIGAILGAALGALLASQLNNLMPIIGVLLDGAALPVAIEPLQVIVIALVAMAIALLSTLYPSWRAAATQPAEALRYE

biological target: Escherichia coli (laboratory strain); test: barcode share on antibiotic plates over drug-free plates; higher = less susceptible; conditions: antibiotic: carbenicillin; 2× MIC (3.1 µg/mL)
Method: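 A pool of E. coli strains, each edited to carry one amino-acid change in an essential protein, was grown for 48 h on minimal glucose agar with or without antibiotic; strain barcodes were sequenced; mean of two replicates.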

Protein	fold change of barcode share
B1	0.0911 ± 0.088
B2	1.02 ± 0.97
B3	2.15 ± 2.6
B4	0.882 ± 0.45
B5	0.0833 ± 0.036
B6	0.231 ± 0.066
B7	0.305 ± 0.064

same assay, conditions: antibiotic: gentamicin; 2× MIC (MIC 0.45 µg/mL)

Protein	fold change of barcode share
B2	0.0129 ± 0.0084
B3	< 0.016
B4	2.2 ± 3
B5	0.0105 ± 0.0058
B6	< 0.00954
B7	< 0.00992
